PMC9911399, “Two distinct binding modes provide the RNA-binding protein RbFox with extraordinary sequence specificity”
Changes are numbered by the printed parent chain; changes in the protein carry UniProt numbers. The list shows a part of the results.

T1: RBFOX1 RRM (Homo sapiens, UniProt Q9NWB1 109-208)
T1 sequence: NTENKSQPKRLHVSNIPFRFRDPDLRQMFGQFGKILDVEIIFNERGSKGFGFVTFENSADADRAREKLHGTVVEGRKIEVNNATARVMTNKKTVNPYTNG

B1: AAUGCUG (DNA:RNA)
RNA: GGGAGACCGGAAUUCAGAUUGUCCAAUGCUGUUAAAUCCCGUCGUAGCCACCA
DNA 1: CAATCTGAATTCCGGTCTCCC
DNA 2: TGGTGGCTACGACGGGATT
B2: GAAUGUG (DNA:RNA)
RNA: B1 RNA with A25G, U27A, G28U, C29G
DNA 1: CAATCTGAATTCCGGTCTCCC
DNA 2: TGGTGGCTACGACGGGATT
B3: AGAUUAU (DNA:RNA)
RNA: B1 RNA with A26G, U27A, G28U, C29U, U30A, G31U
DNA 1: CAATCTGAATTCCGGTCTCCC
DNA 2: TGGTGGCTACGACGGGATT
B4: GUGCAGC (DNA:RNA)
RNA: GGGAGACCGGAAUUCAGAUUGUCCGUGCAGCUUAAAUCCCGUCGUAGCCACCA
DNA 1: CAATCTGAATTCCGGTCTCCC
DNA 2: TGGTGGCTACGACGGGATT
B5: AGUUCGA (DNA:RNA)
RNA: B1 RNA with A26G, G28U, U30G, G31A
DNA 1: CAATCTGAATTCCGGTCTCCC
DNA 2: TGGTGGCTACGACGGGATT
B6: GGGAUCC (DNA:RNA)
RNA: B4 RNA with U26G, C28A, A29U, G30C
DNA 1: CAATCTGAATTCCGGTCTCCC
DNA 2: TGGTGGCTACGACGGGATT
B7: GUUCCCG (DNA:RNA)
RNA: B1 RNA with A25G, A26U, G28C, U30C
DNA 1: CAATCTGAATTCCGGTCTCCC
DNA 2: TGGTGGCTACGACGGGATT
B8: UGCGUCG (DNA:RNA)
RNA: B1 RNA with A25U, A26G, U27C, C29U, U30C
DNA 1: CAATCTGAATTCCGGTCTCCC
DNA 2: TGGTGGCTACGACGGGATT
B9: UUGAAAU (DNA:RNA)
RNA: B4 RNA with G25U, C28A, G30A, C31U
DNA 1: CAATCTGAATTCCGGTCTCCC
DNA 2: TGGTGGCTACGACGGGATT
B10: CGCACAG (DNA:RNA)
RNA: B1 RNA with A25C, A26G, U27C, G28A, U30A
DNA 1: CAATCTGAATTCCGGTCTCCC
DNA 2: TGGTGGCTACGACGGGATT
B11: ACGAGCU (DNA:RNA)
RNA: B1 RNA with A26C, U27G, G28A, C29G, U30C, G31U
DNA 1: CAATCTGAATTCCGGTCTCCC
DNA 2: TGGTGGCTACGACGGGATT
B12: GAUAAAC (DNA:RNA)
RNA: B4 RNA with U26A, G27U, C28A, G30A
DNA 1: CAATCTGAATTCCGGTCTCCC
DNA 2: TGGTGGCTACGACGGGATT
B13: GUAAAAA (DNA:RNA)
RNA: B4 RNA with G27A, C28A, G30A, C31A
DNA 1: CAATCTGAATTCCGGTCTCCC
DNA 2: TGGTGGCTACGACGGGATT
B14: AACAAUA (DNA:RNA)
RNA: B1 RNA with U27C, G28A, C29A, G31A
DNA 1: CAATCTGAATTCCGGTCTCCC
DNA 2: TGGTGGCTACGACGGGATT
B15: GUGACGU (DNA:RNA)
RNA: B4 RNA with C28A, A29C, C31U
DNA 1: CAATCTGAATTCCGGTCTCCC
DNA 2: TGGTGGCTACGACGGGATT
B16: ACCCGCC (DNA:RNA)
RNA: B4 RNA with G25A, U26C, G27C, A29G, G30C
DNA 1: CAATCTGAATTCCGGTCTCCC
DNA 2: TGGTGGCTACGACGGGATT
B17: AAGCGCC (DNA:RNA)
RNA: B4 RNA with G25A, U26A, A29G, G30C
DNA 1: CAATCTGAATTCCGGTCTCCC
DNA 2: TGGTGGCTACGACGGGATT
B18: AUCACAU (DNA:RNA)
RNA: B1 RNA with A26U, U27C, G28A, U30A, G31U
DNA 1: CAATCTGAATTCCGGTCTCCC
DNA 2: TGGTGGCTACGACGGGATT
B19: CGAGAUG (DNA:RNA)
RNA: B1 RNA with A25C, A26G, U27A, C29A
DNA 1: CAATCTGAATTCCGGTCTCCC
DNA 2: TGGTGGCTACGACGGGATT
B20: UGGGUGU (DNA:RNA)
RNA: B4 RNA with G25U, U26G, C28G, A29U, C31U
DNA 1: CAATCTGAATTCCGGTCTCCC
DNA 2: TGGTGGCTACGACGGGATT
B21: AUGACCC (DNA:RNA)
RNA: B4 RNA with G25A, C28A, A29C, G30C
DNA 1: CAATCTGAATTCCGGTCTCCC
DNA 2: TGGTGGCTACGACGGGATT
B22: UGGUGCG (DNA:RNA)
RNA: B1 RNA with A25U, A26G, U27G, G28U, C29G, U30C
DNA 1: CAATCTGAATTCCGGTCTCCC
DNA 2: TGGTGGCTACGACGGGATT
B23: GAAGUUC (DNA:RNA)
RNA: B1 RNA with A25G, U27A, C29U, G31C
DNA 1: CAATCTGAATTCCGGTCTCCC
DNA 2: TGGTGGCTACGACGGGATT
B24: AUCAUGG (DNA:RNA)
RNA: B1 RNA with A26U, U27C, G28A, C29U, U30G
DNA 1: CAATCTGAATTCCGGTCTCCC
DNA 2: TGGTGGCTACGACGGGATT
B25: AUUGUAC (DNA:RNA)
RNA: B1 RNA with A26U, C29U, U30A, G31C
DNA 1: CAATCTGAATTCCGGTCTCCC
DNA 2: TGGTGGCTACGACGGGATT
B26: AGGUAGA (DNA:RNA)
RNA: B4 RNA with G25A, U26G, C28U, C31A
DNA 1: CAATCTGAATTCCGGTCTCCC
DNA 2: TGGTGGCTACGACGGGATT
B27: UCGCCCG (DNA:RNA)
RNA: B1 RNA with A25U, A26C, U27G, G28C, U30C
DNA 1: CAATCTGAATTCCGGTCTCCC
DNA 2: TGGTGGCTACGACGGGATT
B28: GCAUUUA (DNA:RNA)
RNA: B1 RNA with A25G, A26C, U27A, G28U, C29U, G31A
DNA 1: CAATCTGAATTCCGGTCTCCC
DNA 2: TGGTGGCTACGACGGGATT
B29: CCUUUCC (DNA:RNA)
RNA: B1 RNA with A25C, A26C, G28U, C29U, U30C, G31C
DNA 1: CAATCTGAATTCCGGTCTCCC
DNA 2: TGGTGGCTACGACGGGATT
B30: CAUGCAG (DNA:RNA)
RNA: B1 RNA with A25C, U30A
DNA 1: CAATCTGAATTCCGGTCTCCC
DNA 2: TGGTGGCTACGACGGGATT
B31: GCUGGGU (DNA:RNA)
RNA: B1 RNA with A25G, A26C, C29G, U30G, G31U
DNA 1: CAATCTGAATTCCGGTCTCCC
DNA 2: TGGTGGCTACGACGGGATT

Biological target: T1, RBFOX1 RRM
Assay: EMSA; HiTS-Eq, 1 nM pool, 10 min; buffer printed only for the single-RNA assays: 10 mM Tris pH 7.5, 150 mM NaCl, 3.4 mM EDTA, 0.001% NP-40, 30 C
Settings: tags: His6 N-terminal (pET28a); label: 5' 32P
In short: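 Purified wild-type or mutant RbFox RRM at increasing concentrations was equilibrated with 1 nM of 5′-radiolabelled RNA carrying 7 randomized nucleotides for 10 min in 50 µL. Unbound RNA was separated by 8% native PAGE and sequenced. Relative association constants came from read-count changes of each RNA species compared with the control reaction, normalised to the cognate motif.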

Binder | binding signal
B1 | 0.0158 KA relative to UGCAUGU
B2 | 0.0295 KA relative to UGCAUGU
B3 | 0.00313 KA relative to UGCAUGU
B4 | 0.0143 KA relative to UGCAUGU
B5 | 0.0151 KA relative to UGCAUGU
B6 | 0.0157 KA relative to UGCAUGU
B7 | 0.00442 KA relative to UGCAUGU
B8 | 0.0236 KA relative to UGCAUGU
B9 | 0.014 KA relative to UGCAUGU
B10 | 0.00812 KA relative to UGCAUGU
B11 | 0.00781 KA relative to UGCAUGU
B12 | 0.0037 KA relative to UGCAUGU
B13 | 0.0017 KA relative to UGCAUGU
B14 | 0.00117 KA relative to UGCAUGU
B15 | 0.0144 KA relative to UGCAUGU
B16 | 0.00445 KA relative to UGCAUGU

Binder | binding signal
B17 | 0.00794 KA relative to UGCAUGU
B18 | 0.000356 KA relative to UGCAUGU
B19 | 0.0158 KA relative to UGCAUGU
B20 | 0.0478 KA relative to UGCAUGU
B21 | 0.0016 KA relative to UGCAUGU
B22 | 0.0274 KA relative to UGCAUGU
B23 | 0.0136 KA relative to UGCAUGU
B24 | 0.0063 KA relative to UGCAUGU
B25 | 0.0076 KA relative to UGCAUGU
B26 | 0.0121 KA relative to UGCAUGU
B27 | 0.0174 KA relative to UGCAUGU
B28 | 0.00335 KA relative to UGCAUGU
B29 | 0.0033 KA relative to UGCAUGU
B30 | 0.00941 KA relative to UGCAUGU
B31 | 0.0155 KA relative to UGCAUGU
